Results: article PMC4336329 (PLoS ONE, 2015)
In all, about 310,000 compounds went through this assay and about 14,000 (4.5%) showed an effect of 50% or more. Effects have a minus sign here. This is one part of the list.

target: human ether-à-go-go-related gene (hERG) potassium channel (human, UniProt Q12809); assay: primary screen, population patch clamp on CHO cells stably expressing hERG
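Also: peak tail current of the secondary pulse compared with the same well before compound.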

Sequence of human ether-à-go-go-related gene (hERG) potassium channel (Q12809 whole entry, looked up): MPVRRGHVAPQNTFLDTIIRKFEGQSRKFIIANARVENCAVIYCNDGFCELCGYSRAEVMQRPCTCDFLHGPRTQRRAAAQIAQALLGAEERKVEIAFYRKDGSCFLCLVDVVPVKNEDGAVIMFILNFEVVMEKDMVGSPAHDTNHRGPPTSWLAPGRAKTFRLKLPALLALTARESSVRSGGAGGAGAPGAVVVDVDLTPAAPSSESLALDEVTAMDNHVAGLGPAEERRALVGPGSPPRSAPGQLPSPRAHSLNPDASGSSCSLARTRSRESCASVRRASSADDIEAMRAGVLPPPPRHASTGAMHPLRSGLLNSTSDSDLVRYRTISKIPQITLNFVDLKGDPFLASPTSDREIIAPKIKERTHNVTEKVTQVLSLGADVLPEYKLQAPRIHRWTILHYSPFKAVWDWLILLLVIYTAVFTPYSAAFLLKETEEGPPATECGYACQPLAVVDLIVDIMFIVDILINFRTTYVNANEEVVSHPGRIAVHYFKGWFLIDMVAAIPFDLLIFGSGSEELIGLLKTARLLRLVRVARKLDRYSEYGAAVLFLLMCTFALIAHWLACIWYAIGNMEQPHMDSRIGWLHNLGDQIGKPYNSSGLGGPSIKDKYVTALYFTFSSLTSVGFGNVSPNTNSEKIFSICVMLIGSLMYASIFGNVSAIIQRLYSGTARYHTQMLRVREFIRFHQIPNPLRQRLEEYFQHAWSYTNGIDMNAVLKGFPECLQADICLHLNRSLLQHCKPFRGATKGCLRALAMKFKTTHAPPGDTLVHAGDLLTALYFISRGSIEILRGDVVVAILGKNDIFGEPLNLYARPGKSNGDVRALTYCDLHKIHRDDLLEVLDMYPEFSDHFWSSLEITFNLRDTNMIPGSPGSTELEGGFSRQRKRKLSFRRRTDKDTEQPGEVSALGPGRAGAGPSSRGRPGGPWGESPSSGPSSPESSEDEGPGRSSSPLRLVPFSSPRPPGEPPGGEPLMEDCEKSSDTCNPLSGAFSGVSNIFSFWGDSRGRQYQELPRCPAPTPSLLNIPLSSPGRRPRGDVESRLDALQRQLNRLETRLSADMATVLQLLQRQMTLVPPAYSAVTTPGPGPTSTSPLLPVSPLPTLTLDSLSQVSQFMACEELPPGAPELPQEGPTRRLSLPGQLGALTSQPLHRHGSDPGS

In order of falling “hERG current change (%, negative = inhibition) at 10uM” value:
1. O=C1c2ccccc2C(=O)N1CCCP(=O)(O)CCc1ccccc1  28.9%
2. CCOC(=O)NC(=O)c1cn(C(CC)CO)c(=O)[nH]c1=O (centres unmarked)  24.8%
3. CCOC(=O)c1ccc(NS(=O)(=O)c2ccc(-c3coc(C)n3)cc2)cc1  24.2%
4. COc1ccccc1NC(=O)c1cc2cc(Br)ccc2cc1O  22.9%
5. CC(Cl)C(=O)NNc1cccc(Cl)n1 (centres unmarked)  21.8%
6. N#C/C(=C\c1cccc(OCC(=O)O)c1)c1nc2ccccc2[nH]1  19.6%
7. CCOC(=O)c1cc(C(=O)NC(C)c2ccccc2)c(=O)[nH]c1C (centres unmarked)  16.8%
8. CCN(CC)N=Nc1[nH]nc2nc(C)cc(C)c12  15.6%
9. CCCC(=O)Nc1ccc(C(=O)NNC(=O)c2cccc([N+](=O)[O-])c2)cc1  14.5%
10. CCOC(=O)c1c(C)[nH]c(C)c1C(=O)CSc1nnc(-c2cc(OC)c(OC)c(OC)c2)o1  14.4%
11. Cc1ccc(C(=O)N2CCN(c3ncccn3)CC2)o1  13.4%
12. COc1ccc(C(=O)N/C(=C\c2cn(C)c3ccccc23)C(=O)NCCCn2ccnc2)cc1OC  13.2%
13. COc1cccc2c(=O)n(CC(=O)Nc3ccc(F)cc3)ccc12  12.9%
14. CCCc1cc(C(=O)Nc2cc(C)on2)no1  12.8%
15. Cc1cccc(C(=O)Nc2ccc(C(=O)Nc3ccc(O)cc3)cc2)c1  12.5%
16. NC(=O)c1cc(S(=O)(=O)N2CCCC2)ccc1OCc1ccc(F)cc1  11.6%
17. CC1CN(C(=O)COC(=O)c2ccc(NC(=O)CC#N)cc2)CC(C)O1 (centres unmarked)  11%
18. Cc1cc(C(=O)NC2Cc3ccccc3C2)c(C)o1  10.9%
19. S=c1nc(-c2ccccc2)[nH]c2ccc(Br)cc12  9.58%
20. COc1ccc(CN2CC(C(=O)NC3CCCCC3)CC2=O)cc1 (centres unmarked)  7.3%
21. CCOc1ccc(Oc2nc(NCC(C)C)nc(OC)n2)nn1  7.06%
22. COc1ccccc1C(=O)N1C(CC(=O)Nc2cc(Cl)ccc2C)C(=O)NC2CCCCC21 (centres unmarked)  5.59%
23. OCC(CO)(CO)N=Cc1cc(Br)ccc1O  4.89%
24. Cc1cc(C)cc(N2C(=O)C3C4C=CC(C4)C3C2=O)c1 (centres unmarked)  4.28%
25. N/C(=N\OC(=O)Nc1cccc(C(F)(F)F)c1)c1ccno1  4.25%
26. O=C(O)CCN=CC1=C(O)CC(c2ccccc2)CC1=O (centres unmarked)  3.13%
27. C=CCN1C(=O)C2(C(C(=O)c3ccc(C)o3)=C(O)C(=O)N2CCCN2CCOCC2)c2ccccc21 (centres unmarked)  3.04%
28. COc1ccc(C(=O)Cn2nnc(-c3ccccc3NC(=O)C3CCCCC3)n2)cc1  2.23%
29. O=C(COC(=O)C1=COCCO1)Nc1ccc([N+](=O)[O-])cc1C(F)(F)F  1.36%
30. Cn1cccc1/C=N/NC(=O)c1cc2ccccc2cc1O  0.187%
31. [N-]=[N+]=NC[C@H](c1ccccc1)N1CCN(Cc2ccccc2)CCC1=O  -0.754%
32. CCCCNC(=O)NNC(=O)c1ccco1  -2.05%
33. C/C=C/C(=O)OCC(=O)Nc1cccc(S(=O)(=O)NC2=NCCCCC2)c1  -2.31%
34. O=C(C1CCOCC1)N1CCCC(N2CCN(c3ccc(F)cc3)CC2)C1 (centres unmarked)  -3.64%
35. CC1CCc2sc(C(=O)NNS(=O)(=O)c3ccc(F)c(F)c3F)cc2C1 (centres unmarked)  -4.34%
36. COc1cc(C(=O)NCCNc2nc3ccc(C)cc3cc2C#N)cc(OC)c1OC  -4.74%
37. COc1ccc2[nH]c(=O)c(CN(CCO)C(=O)NCc3ccccc3)cc2c1  -5.1%
38. Cc1ccc(S(=O)(=O)NN2C(=O)c3ccccc3NC2c2cccc(O)c2)cc1 (centres unmarked)  -7.34%
39. COC(=O)CCc1c(C)c(C(=O)c2ccco2)c2ccccn12  -7.35%
40. CC(=O)c1c(C)nc(-c2ccc(Cl)cc2)nc1NC(=O)C(C)C  -9.25%
41. CCCn1c(N)c(C(=O)CSc2nc(C)cs2)c(=O)n(C)c1=O  -9.91%
42. CCOc1ccc(S(=O)(=O)NCCC(=O)NCc2ccc(OC)c(OC)c2)cc1  -12.9%
43. CN1CCN(CC#CCC(O)(c2ccccc2)C2CCCC2)CC1.Cl (centres unmarked)  -14.8%
44. CCCn1nnnc1NCc1ccccc1OCc1cccs1  -16.3%
45. COC(=O)c1ccc(CN(c2ccccc2OC)S(=O)(=O)c2cccs2)o1  -17.7%
46. Cc1cc2nc(C3CCN(C(=S)NCC(C)C)CC3)[nH]c2cc1C.O=C(O)C(=O)O  -20.4%
47. N[C@H](CSCc1ccccc1)C(=O)Nc1ccc([N+](=O)[O-])cc1  -23.9%
48. CCn1c(SCC(=O)NCC(=O)Nc2ccc(F)cc2)nnc1-c1cccs1  -25.1%
49. CSc1ccc(CNC(=O)CCn2ccc3cc(S(=O)(=O)N4CCCC4)ccc32)cc1  -31.7%
50. Cc1c(C(=O)c2ccccc2)c2ccccn2c1CCC#N  -39.8%
51. Cc1cccc(C)c1OCc1cc(C(=O)N2CCN(Cc3nccn3C)CC2)no1  -44.1%
52. COc1ccc(OC)c(-c2cc(C(=O)NC3CCCC3)c3ccccc3n2)c1  -46.1%
53. CCOc1ccc(-n2c(C)cc(/C=C3/C(=N)N4C(=NC3=O)SN=C4S(C)(=O)=O)c2C)cc1  -53.4%
54. COc1cc(C)cc2oc(=O)c(CC(=O)N3CCN(C(=O)C4COc5ccccc5O4)CC3)c(C)c12 (centres unmarked)  -53.9%
55. C=CCn1c(SCCN2CCCC2)nc2c([nH]c3ccccc32)c1=O  -71.7%
56. CCOC(=O)C1(CCc2ccccc2)CCN(Cc2csc(C(C)=O)c2)CC1  -74.8%
